Reference: PubChem BioAssay AID360 (National Center for Advancing Translational Sciences (NCATS), 2006)
Hit rate of the full screen: of about 48,000 compounds, about 550 (1.1%) were called active. Another 4% or so got no clear call; they are omitted. No stated cut-off is given here; in the data, active means potency below about 15 µM; inconclusive means mostly about 16 µM to 33 µM; inactive means weaker than that. Some of the results follow.

These molecules were tested against Lysosomal acid glucosylceramidase (Homo sapiens) (UniProt P04062) (assay: Glucocerebrosidase). Conditions: purified enzyme, resorufin glucoside fluorescence (screen aimed at inhibitors), 20 min.
UniProt P04062, sequence (P04062 whole entry, looked up): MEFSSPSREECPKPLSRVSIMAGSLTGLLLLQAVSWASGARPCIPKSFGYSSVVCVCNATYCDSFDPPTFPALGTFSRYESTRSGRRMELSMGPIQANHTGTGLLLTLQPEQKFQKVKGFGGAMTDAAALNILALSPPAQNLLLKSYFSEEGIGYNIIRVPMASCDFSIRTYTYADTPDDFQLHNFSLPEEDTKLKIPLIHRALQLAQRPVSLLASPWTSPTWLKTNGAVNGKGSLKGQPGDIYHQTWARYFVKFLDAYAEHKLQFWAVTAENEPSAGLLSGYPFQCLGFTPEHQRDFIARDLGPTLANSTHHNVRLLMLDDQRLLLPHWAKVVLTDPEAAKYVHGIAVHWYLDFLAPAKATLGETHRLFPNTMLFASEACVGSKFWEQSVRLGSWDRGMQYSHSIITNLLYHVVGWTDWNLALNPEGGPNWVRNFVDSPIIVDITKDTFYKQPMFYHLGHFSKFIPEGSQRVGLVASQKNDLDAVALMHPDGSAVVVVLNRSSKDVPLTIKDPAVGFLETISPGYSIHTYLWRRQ
Outline: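 Compounds titrated against 0.2 nM normal enzyme, 30 uM resorufin beta-D-glucopyranoside substrate, citrate/phosphate buffer with taurocholate and tween-20, pH 5.9. Reaction ran 20 min at room temperature; fluorescence (Ex 548/Em 600) gave AC50.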
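Further: the screen sought inhibitors.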
Potency means the concentration at half of the fitted maximal effect.

Potency, inactive:
CCn1c(=O)c(=O)n(CC)c2cc(S(=O)(=O)Nc3cccc(OC)c3)ccc21 > 76.9 µM
COc1ccc(NC(=O)C(C)NS(=O)(=O)c2ccccc2)cc1Cl (stereo not drawn) > 76.9 µM
Nc1nc(-c2ccco2)cs1 > 76.9 µM
COc1cc(NC(=O)CSc2nnc(C)s2)cc(OC)c1OC > 76.9 µM
Cc1noc(/C=C/N(C)C)c1S(=O)(=O)N(C)CC(=O)NC1CCCCC1 > 76.9 µM
O=C1CN(C(=O)COC(=O)C23CC4CC(CC(O)(C4)C2)C3)c2ccccc2N1 > 76.9 µM
Cc1cccc(-c2c3c(=O)n(C)c(=O)n(C)c3cn2CC2CCCO2)c1 (stereo not drawn) > 76.9 µM
CC(C)Cn1nc(NC(=O)C2CCCO2)c2cc3ccccc3nc21 (stereo not drawn) > 76.9 µM
CN(C(=O)COC(=O)CNS(=O)(=O)/C=C/c1ccccc1)C1CCS(=O)(=O)C1 (stereo not drawn) > 76.9 µM
CCN(CC)CC(=O)c1ccc(-c2ccccc2)cc1 > 76.9 µM
CCOC(=O)Cc1csc(NC(=O)c2ccc3c(c2)OCO3)n1 > 76.9 µM
COc1cc(OC)cc(C(=O)NC2CCN(Cc3nnnn3Cc3cccs3)CC2)c1 > 76.9 µM
CCOC(=O)CSc1nnc(-c2ccncc2)o1 > 76.9 µM
CCOC(=O)c1nn(-c2cc(C(=O)OC)cc(C(=O)OC)c2)cc1O > 76.9 µM
O=C(O)C1CC=CCC1C(=O)Nc1ccc(F)c(F)c1 (stereo not drawn) > 76.9 µM
C=CCn1c(NC(=O)c2ccc(Br)o2)c(C(=O)OCC)sc1=S > 76.9 µM
O=C(c1ccncc1)N(Cc1cc2ccccc2[nH]c1=O)C1CCCCC1 > 76.9 µM
N#CC1=C(N)Oc2cc(N)ccc2C1C1CC=CCC1 (stereo not drawn) > 76.9 µM
COc1ccc(C(=O)Nc2cc(Cl)ccc2Cl)c(OC)n1 > 76.9 µM
NC(=O)Cn1nnc(-c2ccc(C(F)(F)F)cc2)n1 > 76.9 µM
CC(C)Cc1ccc(C(C)C(=O)N2CCOCC2)cc1 (stereo not drawn) > 76.9 µM
CCCCOC(=O)c1ccc(OC(=O)c2cccnc2)cc1 > 76.9 µM
c1ccc(Cn2ncc3c2ncn2c(-c4ccncc4)nnc32)cc1 > 76.9 µM
COCCCNC(=O)Cn1nc(-c2ccc(C)cc2)ccc1=O > 76.9 µM
COc1ccc(-n2c(=O)cc(N3CC(C)OC(C)C3)[nH]c2=O)cc1 (stereo not drawn) > 76.9 µM
CCCc1nc2ccccc2c(=O)n1-c1c(C)n(C)n(-c2ccccc2)c1=O > 76.9 µM
COc1ccc2[nH]c3c(c2c1)CCn1c-3nc2ccccc2c1=O > 76.9 µM
Nn1c(SCc2nc3ccccc3[nH]2)nnc1C1CCCCC1 > 76.9 µM
COc1ccc(-c2cn3cccnc3n2)cc1NC(=O)C1CC1 > 76.9 µM
O=C(Nc1nnc(C2CCCCC2)s1)c1cccs1 > 76.9 µM
COc1cc(OC)c(-c2nn3c(-c4ccncc4)nnc3s2)cc1OC > 76.9 µM
COc1ccc(C(=O)Nc2nc(-c3cccs3)cs2)cc1 > 76.9 µM
O=C(O)c1cccc(C(=O)O)n1 > 76.9 µM
O=C(CN1CCC(O)(c2ccccc2F)CC1)NCCc1c[nH]c2ccccc12 > 76.9 µM
Cc1ccc(C)c(C(=O)CC2(O)C(=O)Nc3ccccc32)c1 (stereo not drawn) > 76.9 µM
Cc1nc2ccccc2c(=O)n1NC(=O)Nc1ccccc1 > 76.9 µM
COc1ccc(CNC(=O)CCc2nc(-c3ccccc3F)no2)c(OC)c1 > 76.9 µM
COC(=O)C(C(=O)N1CCN(C)CC1)C1CCCCCC1 (stereo not drawn) > 76.9 µM
COC(=O)C1(CCSC)NC(c2ccc(O)cc2)C2C(=O)N(c3ccc4c(c3)OCCO4)C(=O)C21 (stereo not drawn) > 76.9 µM
Cc1cccc(-c2c3c(=O)n(C)c(=O)n(C)c3c3nnc4ccccc4n23)c1 > 76.9 µM
CCC1SC2=NC(C)=C(C(=O)OC)C(c3cccs3)N2C1=O (stereo not drawn) > 76.9 µM
CCC(=O)N(Cc1ccco1)c1nc(-c2ccccc2)cs1 > 76.9 µM
Clc1ccc(-c2nc3nc4ccccc4nc3n2Cc2ccco2)cc1 > 76.9 µM
c1ccc2c(c1)N1CCN=C1N2CCN1CCCCC1 > 76.9 µM
O=C(O)CCNc1ccc2c(c1)OCCO2 > 76.9 µM
Nc1cc(Cl)ccc1Oc1ccccc1 > 76.9 µM
CCC(C)(C(=O)NC1CCCCC1)N(Cc1ccco1)C(=O)CNC(=O)c1ccccc1 (stereo not drawn) > 76.9 µM
CCOC(=O)Cn1nnc(-c2cccc(OC)c2)n1 > 76.9 µM
CC(=O)Nc1cccc(NC(=O)C2CCCN2C(=O)Nc2cccc(F)c2)c1 (stereo not drawn) > 76.9 µM
COc1cccc(-n2cnc3scc(-c4cccs4)c3c2=O)c1 > 76.9 µM
N#Cc1ccccc1Cn1c(=O)n(CCCC(=O)NCc2ccc3c(c2)OCO3)c(=O)c2ccccc21 > 76.9 µM
CN1CCN(c2ccc(NC(=O)c3ccccc3Br)cc2)CC1
COCCn1c(N2CCN(c3ccc(OC)cc3)CC2)nc2c1c(=O)[nH]c(=O)n2C > 76.9 µM
CSc1nnc2c(n1)OC(C)N(C(=O)c1ccccc1)c1ccccc1-2 (stereo not drawn) > 76.9 µM
COc1ccc(N2CCN(C(=O)C(OC(C)=O)c3ccccc3)CC2)cc1 (stereo not drawn) > 76.9 µM
COc1ccc2c(c1)c(C(=O)CNc1nc(C)cs1)c(C)n2C > 76.9 µM
C=C(C)Cn1c(SCCCO)nc2c1c(=O)[nH]c(=O)n2C > 76.9 µM
O=C(CN1CCN(CC(=O)Nc2ccc3c(c2)OCO3)CC1)Nc1ccc(F)cc1 > 76.9 µM
Cc1ccc(Cn2c(C)nc3c(c2=O)c2nc4ccccc4nc2n3Cc2ccco2)cc1 > 76.9 µM
Cc1cc(-n2c(C)cc(C(=O)COc3ccc4ccc(=O)oc4c3)c2C)no1 > 76.9 µM
CCOc1ccc(C)cc1S(=O)(=O)n1ccc(C)n1 > 76.9 µM
Cn1c(=O)c2c(nc(CN3CCOCC3)n2CC(O)CO)n(C)c1=O (stereo not drawn) > 76.9 µM
O=S(=O)(c1ccccc1)c1nc(-c2cccs2)oc1NCC1CCCO1 (stereo not drawn) > 76.9 µM
CCOCCCN1CC(C(=O)NCCc2ccccc2)CC1=O (stereo not drawn) > 76.9 µM
CC(C)CCn1c(N2CCN(c3cccc(Cl)c3)CC2)nc2c1c(=O)[nH]c(=O)n2C > 76.9 µM
O=C(NCC1CCCO1)c1cc2ccccc2[nH]1 (stereo not drawn) > 76.9 µM
Cc1cc(C)nc(NS(=O)(=O)c2ccccc2)n1 > 76.9 µM
COc1ccccc1-c1ccc(C(=O)O)o1 > 76.9 µM
CCCOn1nnnc1-c1ccccc1 > 76.9 µM
c1coc(CNc2ncnc3sc4c(c23)CCCCC4)c1 > 76.9 µM
N#Cc1nc(Cc2cccc3ccccc23)oc1N1CCOCC1 > 76.9 µM
Brc1ccc(CSc2nnc(-c3ccccn3)n2Cc2ccco2)cc1 > 76.9 µM
CCC(C)(C)n1nnnc1CN1CCSCC1 > 76.9 µM
CCc1[nH]nc2c1C(C(C)C)C(C#N)=C(N)O2 (stereo not drawn) > 76.9 µM
COc1cc(NC(=O)CN(c2ccc(C)cc2)S(=O)(=O)c2c(C)nn(C)c2C)cc(OC)c1 > 76.9 µM
Cc1c(Cl)cccc1NC(=O)Cn1cccc1 > 76.9 µM
CCOC(=O)N1CCN(S(=O)(=O)c2cccc3cccnc23)CC1 > 76.9 µM
O=C(NCCCN1CCOCC1)c1ccc(CS(=O)(=O)Cc2ccccc2Cl)o1 > 76.9 µM
C1=CN2CCC1C(c1ccccc1)C2 (stereo not drawn) > 76.9 µM
c1ccc(N(c2ccccc2)c2nc(-n3ccnc3)nc(-n3ccnc3)n2)cc1 > 76.9 µM
O=C(Nc1cccc2ncccc12)c1ccc2c(c1)OCCO2 > 76.9 µM
CN1C(=S)SC(C)(C)C1/[N+]([O-])=C/c1cccnc1 (stereo not drawn) > 76.9 µM
COc1ccccc1-n1c(SCC(=O)Nc2ccc3c(c2)OCO3)nc2c(c1=O)SCC2 > 76.9 µM
O=c1c2ccccc2nc(SCc2cccc(F)c2)n1Cc1ccco1 > 76.9 µM
COc1ccc(Cn2cccc(NC(=O)Nc3ccc(C#N)cc3)c2=O)cc1 > 76.9 µM
CC1CCN(C(=O)CN(C2CCCCC2)S(C)(=O)=O)CC1 > 76.9 µM
Cc1ccccc1N=C1NC(=O)CS1 > 76.9 µM
CCC(=O)NC1=C(C#N)C2(CCCC2)Cc2ccccc21 > 76.9 µM
CC1CCCN(c2ccc(C(=O)NCCc3ccccc3)cn2)C1 (stereo not drawn)
O=C(CSc1nnc(CNc2ccc(F)cc2)n1Cc1ccco1)N1CCCC1 > 76.9 µM
Cc1c(NC(=O)c2cccc(F)c2)c(=O)n(-c2ccccc2)n1C > 76.9 µM
CC(C)[C@@H](C(=O)NCC1CCC(C(=O)O)CC1)n1nnc2ccccc2c1=O (stereo partly drawn) > 76.9 µM
COc1cccc(Nc2nnc(SCC(=O)N3CCOCC3)s2)c1 > 76.9 µM
